# The supplement of paper PMC8512760
# The list shows a part of the results. Many values rest on one well or one pass, so single values are uncertain.
# Test system: MDA-468
# Test: cell viability relative to vehicle (% of vehicle); basal-like triple-negative breast cancer lines; higher = less cytotoxic
# Conditions: 10 µM; 72 h
# 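Further: stably firefly luciferase-GFP labeled cells in 96-well plates, viability read as luciferase photon flux after d-luciferin addition, treated wells normalized to vehicle wells, single-dose high-throughput screen.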
row,SMILES,cell viability
1,O=c1cc[nH]c(=O)[nH]1 [Uracil],120
2,O=C([O-])CC(O)CC(O)C=Cc1c(C2CC2)nc2ccccc2c1-c1ccc(F)cc1.O=C([O-])CC(O)CC(O)C=Cc1c(C2CC2)nc2ccccc2c1-c1ccc(F)cc1.[Ca+2] (configuration not stated) [Pitavastatin Calcium],33.1
3,CN(C)CC(c1ccc(O)cc1)C1(O)CCCCC1.O.O=C(O)CCC(=O)O (configuration not stated) [Desvenlafaxine Succinate],104
4,N#CC1CC2CC2N1C(=O)C(N)C12CC3CC(CC(O)(C3)C1)C2 (configuration not stated) [Saxagliptin],110
5,O=C([O-])c1cc(=O)c2c(OCC(O)COc3cccc4oc(C(=O)[O-])cc(=O)c34)cccc2o1.[Na+].[Na+] [Cromolyn sodium],100
6,CCOC(=O)C1=CC(OC(CC)CC)C(NC(C)=O)C(N)C1 (configuration not stated) [Oseltamivir],87.2
7,CC(C)(C)N.CCCC(NC(C)C(=O)N1C(C(=O)O)CC2CCCCC21)C(=O)OCC (configuration not stated) [Perindopril Erbumine],91.5
8,CC(=O)Nc1ccccc1 [Acetanilide],83.2
9,Cl.O=C1NCC2(CCN(CCc3ccccc3)CC2)O1 [Fenspiride HCl],103
10,CN(C)CCc1c[nH]c2ccc(CC3COC(=O)N3)cc12 (configuration not stated) [Zolmitriptan],119
11,Cl.NC(CO)C(=O)NNCc1ccc(O)c(O)c1O (configuration not stated) [Benserazide HCl],121
12,OCC1OC(OC2(CCl)OC(CCl)C(O)C2O)C(O)C(O)C1Cl (configuration not stated) [Sucralose],98.5
